The results in this text go back to patent US20220031700A1, “Treatment of Acute Respiratory Distress Syndrome (ARDS)” (priority 2020, published 2022).

Assay [1] concerns Influenza virus A/PR/8/34 H1N1. In words: Survival rate in experimental influenza model. Conditions: influenza 7.5 Lg EID50 IN; 100 mg/kg IP QD 10 days; vehicle-treated group 50%.
For assay [2], the system named is Influenza virus A/PR/8/34 H1N1. In words: Daily body weight in experimental influenza model. Conditions: influenza 7.5 Lg EID50 IN; 100 mg/kg IP QD 10 days; compared to Influenza/Vehicle treated animals.
For assay [3], the system named is Influenza virus A/PR/8/34 H1N1. In words: Lung Wet/Dry ratio assay in experimental influenza model. The conditions noted are these: influenza 6.5 Lg EID50 IN; 100 mg/kg IP QD 7 days; Day 7; compared to influenza-infected/vehicle-treated control.

For `Cc1cccc(Oc2cnc(=O)[nH]c2)c1` [MLR-1023, tolimidone], the “overall survival rate (animals survived)” value in assay [1] came to 87.5%. In assay [2], the body weight result is “did not produce a significant effect”. Moreover, the “wet weight/dry weight ratio (pulmonary edema)” value in assay [3] was “significantly reduced”.
